# Values joined by “and” are separate entries in the source; they are usually repeats but may differ in a detail not shown here. Equal values may be shown once. Out of some 420,000 compounds screened, about 50,000 (12%) were called active. The inconclusive results got no clear call from the source; some entries with a clear call stand among them for comparison. Calls follow the shape of the dose curve; as a rule, active = well fitted inhibition curve with a large enough effect; inconclusive = small, poorly fitted or top-dose-only effect; inactive = flat fitted curve, though single readings scatter. Potencies beside an inconclusive call are fits to weak or partial responses and may not hold up.
# Assay: qHTS for Inhibitors of human tyrosyl-DNA phosphodiesterase 1 (TDP1): qHTS in cells in presence of CPT; also: nearly all actives have a fitted effect of over 55% in size
# Conditions: chicken DT40 Tdp1-/-;hTDP1 cells + 20 nM CPT, ATP luminescence, 48 h; activity change, negative = growth inhibition: at 46.2 µM (top of the series) unless noted
# Outline: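 Cell growth measured by CellTiter-Glo luminescence after a minimum 48 h, 37 C compound exposure with 20 nM CPT in Tdp1-knockout DT40 cells stably expressing hTDP1, seeded 400/well; qHTS titration format.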
# % is scaled to controls: 0 for no effect and ±100 for the full control effect; potency is read from the fitted curve at half-maximal effect; tags tell the direction and shape of the fitted curve.
Compound,Potency,"activity change, negative = growth inhibition"
O=C(Nc1cc(S(=O)(=O)N2CCOCC2)ccc1N1CCCCC1)c1ccccc1Br,"inconclusive: 23.1 µM [inhibitor, single point]",–
COc1cc(/C=C2\SC(=S)N(N(C)c3ccccc3)C2=O)ccc1O,–,inactive: 7.61%
CCCc1nnc(NC(=O)CCS(=O)(=O)c2ccccc2)s1,active: 2.31 µM,–
CC(OC(=O)CN1C(=O)COc2ccccc21)C(=O)NCc1ccc(F)cc1 (stereo unspecified),–,inactive: -15.2%
CCc1ccc2[nH]c(=O)c(CN(Cc3ccco3)Cc3nnnn3Cc3ccco3)cc2c1,"inconclusive: 25.1 µM [inhibitor, single point]",–
Cc1cc(OCC(=O)Nc2cc(-c3nn4c(C)nnc4s3)ccc2C)ccc1Cl,active: 4.11 µM,–
CCSc1ncc(Cl)c(C(=O)Nc2ccc(S(=O)(=O)Nc3nccc(C)n3)cc2)n1,–,inactive: -28.3%
Cc1cccc(CSc2nc3cccnc3n2Cc2ccc(C(=O)NCc3ccco3)cc2)c1,"inconclusive: 18.4 µM [inhibitor, single point]",–
CCOC(=O)c1cccc(NC(=O)C2CCN(c3ncnc4c3nc3n4CCCCC3)CC2)c1,"inconclusive: 3.66 µM [inhibitor, single point]",–
COc1ccc(N2CCC(CNC(=S)Nc3cccc(C)c3)C2)cc1 (stereo unspecified),"inconclusive: 20.6 µM [inhibitor, single point]",–
Cc1ccc(NC(=S)NCCc2ccccc2)c(C)c1,"inconclusive: 29.1 µM [inhibitor, single point]",–
COc1ccc(CN(Cc2ccco2)c2cnc(S(C)(=O)=O)nc2C(=O)Nc2ccc(C)c(C)c2)cc1,"inconclusive: 29.1 µM [inhibitor, single point]",–
CC(C)C[C@H](NC(=O)c1nc[nH]c1C(=O)NCCCCCNC(=O)OC(C)(C)C)C(=O)OCc1ccccc1,"inconclusive: 18.4 µM [inhibitor, single point]",–
CC(NC(=O)COC(=O)c1ccc([N+](=O)[O-])s1)c1ccccc1 (stereo unspecified),"inconclusive: 0.58 µM [inhibitor, single point]",–
O=C(CCC1N=C2c3ccccc3N=C(SCc3ccccc3Cl)N2C1=O)N1CCN(c2ccccc2)CC1 (stereo unspecified),"inconclusive: 29.1 µM [inhibitor, single point]",–
CN1/C(=C\C(=S)NC(=O)c2ccccc2Cl)C(C)(C)c2ccccc21,active: 7.31 µM,–
COc1ccc(/C=N/NC(=O)c2cc(C34CC5CC(CC(C5)C3)C4)[nH]n2)cc1OC,"inconclusive: 29.1 µM [inhibitor, single point]",–
CCOc1cc(/C=N/Nc2cccc(C(=O)O)c2)ccc1OC(=O)c1ccccc1,–,inactive: 6.94%
CCC(=O)N(C)C(c1ccccc1Cl)c1nnnn1-c1c(C)cccc1C (stereo unspecified),"inconclusive: 29.1 µM [inhibitor, single point]",–
CC(C)NC(=O)c1cnc(Sc2ncc(C(F)(F)F)cc2Cl)n1C,"inconclusive: 29.1 µM [inhibitor, single point]",–
O=C(CO/N=C/c1ccccc1)N1c2ccccc2Oc2ccccc21,"inconclusive: 23.1 µM [inhibitor, single point]",–
O=C(NCC(=O)N(c1ccc(F)cc1)C(C(=O)NC1CCCC1)c1cccnc1)c1cccs1 (stereo unspecified),–,inactive: 23.7%

Compound,Potency,"activity change, negative = growth inhibition"
COc1ccc(CNC(=O)COC(=O)C2CC2C)cc1OC (stereo unspecified),"inconclusive: 18.4 µM [inhibitor, single point]",–
CCN1C(=O)c2ccccc2S(=O)(=O)c2ccc(C(=O)NCCCN(CC(C)C)CC(C)C)cc21,–,inactive: 4.96%
CC(C)C[C@@H](CO)N1CCN(C)CCC1=O,inactive,–
Cc1c(Cl)cccc1NC(=O)CCNC(=O)N1CC(=O)Nc2ccccc21,–,inactive: -22.3%
O=C(COC(=O)/C(=C/c1cccs1)c1cccs1)NCc1ccccc1Cl,"inconclusive: 8.2 µM [inhibitor, partial curve]",–
C=CCNC(=O)c1sc(=S)n(-c2ccc(C(=O)OCC)cc2)c1N,"inconclusive: 25.9 µM [inhibitor, single point]",–
Cc1ccc(NC(=O)COC(=O)c2ccccc2-c2nc3ccccc3s2)c(C)c1,"inconclusive: 29.1 µM [inhibitor, single point]",–
CC(C)Oc1ccc(CN2CCC(n3nccc3NC(=O)c3cccnc3)CC2)cc1,–,inactive: -19.1%
O=C1c2cccc3cccc(c23)N1CN1CCN(c2ccccn2)CC1,"inconclusive: 18.4 µM [inhibitor, single point]",–
N/C(=N\OC(=O)Cc1ccccc1[N+](=O)[O-])c1cccc(Br)c1,–,inactive: -5.23%
CCc1ccc(CNC(=O)C2CCCN(S(=O)(=O)N3CC(C)CC(C)C3)C2)cc1 (stereo unspecified),"inconclusive: 29.1 µM [inhibitor, single point]",–
CN(C)c1ccc(/C=C/c2ncnc3ccccc23)cc1,"inconclusive: 25.1 µM [inhibitor, single point]",–
CC[C@H]1OC(=O)[C@H](C)[C@@H](O[C@H]2C[C@@](C)(OC)[C@@H](O)[C@H](C)O2)[C@H](C)[C@@H](O[C@@H]2O[C@H](C)C[C@H](N(C)C)[C@H]2O)[C@](C)(O)C[C@@H](C)C(=NOCOCCOC)[C@H](C)[C@@H](O)[C@]1(C)O,"inconclusive: 29.1 µM [inhibitor, single point]",–
COc1cc2c(NC3CCN(C)CC3)nc(N3CCCN(C)CC3)nc2cc1OCCCN1CCCC1,"inconclusive: 35.5 µM [inhibitor, single point]",–
CCCSCCCNC(=O)c1cc2n(n1)CCCN(Cc1ccc(C)cc1)C2=O,active: 18.4 µM,–
Cc1ccc(C)c(N2CCN(C(=O)CCn3c(=O)[nH]c4ccccc4c3=O)CC2)c1,active: 16.4 µM,–
Cc1ccc(C)c(NC(=O)CSc2ncc3c(n2)-c2cc(Cl)ccc2N(Cc2ccccc2F)S3(=O)=O)c1,"inconclusive: 32.6 µM [inhibitor, single point]",–
CCOc1ccc(CCNC(=O)CCN2N=C(c3ccc(OC)cc3)CCC2=O)cc1OCC,"inconclusive: 29.1 µM [inhibitor, single point]",–
COc1ccccc1C1CC(c2ccco2)=NN1S(C)(=O)=O (stereo unspecified),active: 20.6 µM,–
COC(=O)CC(CC(=O)OC)n1cccc1,–,inactive: 3.57%
O=C(Nc1ccnn1C1CCN(CCCc2ccccc2)CC1)c1cccc(F)c1,"inconclusive: 29.1 µM [inhibitor, single point]",–
C/C(=N/OCc1ccc(Br)cc1)c1ccccn1,–,inactive: 5.6%

Compound,Potency,"activity change, negative = growth inhibition"
Cc1cc2c(ccc3[nH]onc32)n1,–,inactive: -24.7%
Cc1cc(Cl)ccc1NC(=O)CCn1nc(C)c2c(C)n(-c3ccccc3)nc2c1=O,"inconclusive: 20.6 µM [inhibitor, single point]",–
CCCC(O)(CCN1CCOCC1)c1ccc(Br)cc1 (stereo unspecified),"inconclusive: 29.1 µM [inhibitor, single point]",–
CC(C)C(NC(=O)C12CC3CC(CC(C3)C1)C2)C(=O)N/N=C/C1=C(N2CCOCC2)C(=C\c2ccc([N+](=O)[O-])cc2)/CC1 (stereo unspecified),–,inactive: -22.2%
COc1cccc(C2(c3cccc(OC)c3)CC2C(=O)Nc2cccc3ccccc23)c1 (stereo unspecified),"inconclusive: 18.4 µM [inhibitor, single point]",–
Cc1ccc(S(=O)(=O)N2CCN(C(=O)COC(=O)c3c(C)cc(C)cc3C)CC2)c(C)c1,"inconclusive: 29.1 µM [inhibitor, single point]",–
Cc1cccc(CSc2ccc(S(=O)(=O)N3CCCC3)cn2)c1,–,inactive: -19.9%
CC1(C)CC(=O)c2cc(-c3nc(-c4ccc(Cl)cc4)cs3)c(=O)n(-c3ccc(F)cc3)c2C1,"inconclusive: 18.4 µM [inhibitor, single point]",–
CC(CNC1CCCCC1)OC(=O)c1ccccc1 (stereo unspecified),"inconclusive: 8.05 µM [inhibitor, single point]",–
Cc1cc(CNC(=O)c2cc(-c3ccccc3)nc3ccccc23)nn1C,"inconclusive: 25.9 µM [inhibitor, single point]",–
COc1ccc(Cn2ccc3nc(C)c(C(=O)NCc4ccc(C)cc4)cc3c2=O)cc1,active: 25.9 µM,–
Cn1nc(-c2ccccc2)c(C(O)c2ccc(Cl)cc2)c1Cl (stereo unspecified),"inconclusive: 29.1 µM [inhibitor, single point]",–
COC(=O)C1CCN(C(=O)COC(=O)c2cc(-c3ccccc3)nc3ccc(OC)cc23)CC1,"inconclusive: 18.4 µM [inhibitor, single point]",–
COc1ccc(N(CC(=O)N2CCN(c3ccc(F)cc3)CC2)S(=O)(=O)c2c(C)n[nH]c2C)cc1,"inconclusive: 29.1 µM [inhibitor, single point] and inconclusive: 10.3 µM [inhibitor, single point]",–
O=C1NCCCCC1NS(=O)(=O)c1cccc2ccccc12 (stereo unspecified),–,inactive: -2.53%
O=C(Nc1ccc(S(=O)(=O)N2CCCCC2)cc1)c1ccncc1,"inconclusive: 35.5 µM [inhibitor, partial curve]",–
CCOC(=O)c1ccc(NC(=S)NCCCn2ccnc2)cc1,–,inactive: 0.382%
CCN1CCN(c2ccc(NC(=O)CCc3c(C)nc4c(-c5ccccc5)c(C)nn4c3C)cc2)CC1,"inconclusive: 29.1 µM [inhibitor, single point]",–
O=C(NCCc1csc2nc(-c3cccc(F)c3)nn12)c1ccc(Br)o1,"inconclusive: 29.1 µM [inhibitor, single point]",–
CSc1nc(S(C)(=O)=O)nc2[nH]c(=O)[nH]c12,–,inactive: -5.79%
CCNc1ncc2nc(-c3ccc(F)cc3)c(=O)n(C)c2n1,"inconclusive: 13 µM [inhibitor, partial curve, poor fit]",–
COC[C@H]1CCCN1c1ccc2c(c1)O[C@@H](COCc1ccccc1)CN([C@@H](C)c1ccccc1)S2(=O)=O,active: 10.3 µM,–
